These are yes or no findings as the source states them, for the method shown. Some results given as binding are weak or reduced against the parent protein; the word gives no strength. For part of these data: Where a sequence is shown, tags or fusion partners need not be part of it.

The target in assay [1] is T1, P1126_AMBCA displayed on yeast (Amblyomma cajennense).
T1 sequence: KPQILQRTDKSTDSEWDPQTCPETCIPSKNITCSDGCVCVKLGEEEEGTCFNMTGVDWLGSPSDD
Nature of the assay: flow cytometry on cells; yeast surface display; individual yeast clones displaying an evasin labelled with biotinylated chemokine plus streptavidin-AF647, against streptavidin-AF647 alone or control yeast with the display tag alone; only the binder purified.

Assay [2] concerns the target T2, P1142_AMBCA displayed on yeast (Amblyomma cajennense).
T2 sequence: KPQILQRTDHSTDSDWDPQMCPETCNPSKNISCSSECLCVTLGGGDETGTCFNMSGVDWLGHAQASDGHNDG
The description is as above.

The target in assay [3] is P1090_IXORI (Ixodes ricinus). Nature of the assay: BLI; cross-binding screen on OctetRed; evasin held on a nickel-coated biosensor through its C-terminal His tag; each human chemokine at 300 nM; both purified. A general note: In BLI a coated tip is dipped into the sample, and binding shifts an interference pattern.
Assay [4] concerns the target P1124_IXORI (Ixodes ricinus). The description is as above.
Assay [5] addresses P1086_IXORI (Ixodes ricinus). The description is as above.
For assay [6], the target named is P942_IXORI (Ixodes ricinus). The assay is described as above.
Assay [7] has as its target T3, P1126_AMBCA (Amblyomma cajennense).
T3 sequence: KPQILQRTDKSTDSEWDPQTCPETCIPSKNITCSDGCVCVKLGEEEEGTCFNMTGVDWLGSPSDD
Described as above.

The target in assay [8] is P1100_IXORI (Ixodes ricinus). The description is as above.
Assay [9] concerns the target T4, EVA3_RHISA (Rhipicephalus sanguineus) (UniProt P0C8E8).
T4 sequence: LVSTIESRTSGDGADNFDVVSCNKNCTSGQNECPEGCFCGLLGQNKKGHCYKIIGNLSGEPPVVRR
Described as above.

Assay [10] addresses T5, P1142_AMBCA (Amblyomma cajennense).
T5 sequence: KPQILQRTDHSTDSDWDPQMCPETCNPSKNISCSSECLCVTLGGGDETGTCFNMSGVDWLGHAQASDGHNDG
The assay is described as above.

Assay [11] addresses P1080_IXORI (Ixodes ricinus). Described as above.
In assay [12] the target is P1078_IXORI (Ixodes ricinus). The description is as above.
The target of assay [13] is T6, P1172_IXORI (Ixodes ricinus) (UniProt V5I2G9).
T6 sequence: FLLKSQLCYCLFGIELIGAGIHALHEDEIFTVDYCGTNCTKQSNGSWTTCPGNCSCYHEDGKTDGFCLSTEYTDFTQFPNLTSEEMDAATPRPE
Described as above.

B1: biotinylated CXCL7 (ligand, UniProt P02775 59-128)
chain: AELRCMCIKTTSGIHPKNIQSLEVIGKGTHCNQVEVIATLKDGRKICLDPDAPRIKKIVQKKLAGDESAD
modifications: biotin
Consider B1, for which the binding entry in [1] and in assay [2] was “binds” in each case.

B2: CCL3L1 (ligand, UniProt P16619 24-93)
chain: APLAADTPTACCFSYTSRQIPQNFIADYFETSSQCSKPSVIFLTKRGRQVCADPSEEWVQKYVSDLELSA
With B2, the binding entry in [3], in [4], in assay [5], in assay [6], in assay [7] and in assay [8] was “no binding (tested: 300 nM)” in each case. For the same molecule, the binding result in assay [9], in [10], in [11], in [12] and in assay [13] was “no binding (tested: 300 nM)” each time.

B3: CCL4L1 (ligand, UniProt Q8NHW4 24-92)
chain: APMGSDPPTACCFSYTARKLPRNFVVDYYETSSLCSQPAVVFQTKRGKQVCADPSESWVQEYVYDLELN
Take B3: the binding entry in [3], in [4], in assay [5], in [6], in [7] and in [8] was “no binding (tested: 300 nM)” throughout. Further, the binding entry in assay [9], in assay [10], in assay [11], in [12] and in assay [13] was “no binding (tested: 300 nM)” in each case.

The values above are taken from article PMC6643034.
